In the supplement of paper PMC10338343:
± gives the standard deviation. The entries are a selection whose mix differs from that of the whole data set.

These sequences were tested on MIWI (PIWIL1) piRISC loaded with L1MC piRNA (30 nt) (assay: pre-steady-state target cleavage rate (min^-1); MIWI and MILI are mouse PIWI proteins and EfPiwi is from a freshwater sponge; tags in brackets are library labels; higher = faster piRNA-guided slicing of the target). Settings: guide: L1MC piRNA 5'p-UAACUAAAUACUAUGCAAGCUGUAGGUCCU; auxiliary factor: 500 nM mouse GTSF1.
Outline: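 With or without 500 nM GTSF1 partner protein, 1 nM active affinity-purified piRISC carrying one synthetic guide was mixed with 0.1 nM transcribed, DNA-blocked target RNA library in HEPES–potassium acetate buffer at 33 °C for 0–8 or 0–960 min. Uncleaved targets were sequenced and normalised to depth and to weakly complementary targets, three trials were pooled, and k3 was capped at 0.0001 min^-1. The pre-steady-state cleavage rate came from a burst-and-steady-state fit.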

Sequence | pre-steady-state target cleavage rate
UCCUGGAUGUGGUAGCAUAGUAUUUAGUUA | 0.00879 ± 0.0039
UCCUGGAACAGCUAGCAUAGUAUUUACAAA | 0.143 ± 0.023
UCCUCCUACAGCUUGCAUAGUAAAUACAAA | 0.0937 ± 0.027
UCCACCUACAGCUUGCAAUAGUAUUUAGUUA | 0.166 ± 0.035
UCCUCCUACAGCUUGCUAAGUAUUUACAAA | 0.0127 ± 0.0064
UCCACCUACAGGUUGCAUAGUAUUUUCAAA | 0.238 ± 0.039
UGGACCUACAGCUUGCAUAGUAUUAACAAA | 0.225 ± 0.032
UCCACCUACAGCUUGCAUUAGUAUUUAGUUA | 0.0935 ± 0.034
UCCUCCUAGUCCUUGCAUAGUAUUUAGAAA | 0.138 ± 0.032
UCCACCUACAGCUUGCAUAGUAUAAUGAAA | 0.249 ± 0.04
UCCUGGUACAGGUUGCAUAGUAUUUACAAA | 0.0866 ± 0.018
UCCUGGAUGAGCUUGCAUAGAAAUUAGUUA | 0.0143 ± 0.0049
UCCUGGAUGUCGAACCAUAGUUAUUUAGUUA | < 0.0001
UCCUGGAUGUCGAACCAUUGUAUUUACUUA | < 0.0001
UCCACCUACAGCUUGCAUAGUAAAAACAAA | 0.172 ± 0.043
AGGACCUACAGCUUGCAUAGUUAAUAGAAA | 0.189 ± 0.051
AGGACCUACAGCUUGCAUAGUAAAUACAAA | 0.187 ± 0.042
UCCUGGAAGUCCUUGCAUAGUAUUUUCAAA | 0.0083 ± 0.0049

Sequence | pre-steady-state target cleavage rate
UCCACCUACAGCUUGCAUAGUAUUUGUUA | 0.328 ± 0.041
UCCUCCUACAGCUUCCAUAGUUUUUAGUUA | 0.0305 ± 0.013
UCCACCUACAGCUUGCAUUCUAUUUACAAA | 0.034 ± 0.013
UCCUGCUAGUGCUUGCAUAGUAUUUUCAAA | 0.0208 ± 0.0062
UCCUGGAACAGCUUGCAAUGUAUUUAGAAA | 0.0487 ± 0.015
UCGACCUACAGCUUGCAUAGUAAAAAGUUA | 0.445 ± 0.04
UCCUGGAUGUCGUUGCAUAGUAUUUAGGUUA | 0.00749 ± 0.0034
UCCUGGAUCAGCUUCCAUAGAAUUUAGUUA | 0.00874 ± 0.0056
AGGACCUACAGCUUCGAUAGUAUUUAGUAA | 0.463 ± 0.057
UCCUCCAUCAGCUUGCAUAGUAUUUUCAAA | 0.239 ± 0.034
UCCACCUUGUGCUUGCAUAGUAUUUAGAAA | 0.121 ± 0.017
UCCUGGUACAGCUUGCAUAGUAUAAUGAAA | 0.113 ± 0.025
UCCUGGAUCAGCAAGCAUAGUAUUUAGUAA | 0.0752 ± 0.012
UCCUGCAUGAGCUUGCAUAGUAUUUACAAA | 0.17 ± 0.04
UCCUGGAUGUCCUUGCAUAGUAUUUUCUUA | 0.0231 ± 0.0072
UCCUCCUACAGCUAGCAUAGUAUUUUCAAA | 0.321 ± 0.04
UCGACCUUGUGCUUGCAUAGUAUUUUCAAA | 0.0817 ± 0.015
UGGACCUACAGCUUGGAUAGUAUUUUCAAA | 0.0103 ± 0.0033

Same assay, conditions: guide: L1MC piRNA 5'p-UAACUAAAUACUAUGCAAGCUGUAGGUCCU; auxiliary factor: none (no GTSF1)

Sequence | pre-steady-state target cleavage rate
UCCUGGAUGUCGAACGAUAGAAUAUAGUUA | < 0.0001
UCCUGGAUGUCGAACGUUAGUAUUUAUUUA | < 0.0001
UCCUGGAUGUCGAACGAUAUAUUUAGUUA | < 0.0001
UGGACCCUACAGCUUGCAUAGUAUUUAGUUA | 0.0808 ± 0.015
